From the GPR68 mutational scans of Howard et al. (2025) come the findings set out here.

B1: GPR68, Q15743 (parent)
chain: MGNITADNSSMSCTIDHTIHQTLAPVVYVTVLVVGFPANCLSLYFGYLQIKARNELGVYLCNLTVADLFYICSLPFWLQYVLQHDNWSHGDLSCQVCGILLYENIYISVGFLCCISVDRYLAVAHPFRFHQFRTLKAAVGVSVVIWAKELLTSIYFLMHEEVIEDENQHRVCFEHYPIQAWQRAINYYRFLVGFLFPICLLLASYQGILRAVRRSHGTQKSRKDQIQRLVLSTVVIFLACFLPYHVLLLVRSVWEASCDFAKGVFNAYHFSLLLTSFNCVADPVLYCFVSETTHRDLARLRGACLAFLTCSRTGRAREAYPLGAPEASGKSGAQGEEPELLTKLHPAFQTPNSPGSGGFPTGRLA

Scores with a large standard error are left out. The source holds two more conditions with little spread; they are left out. In variant names, del marks residues removed and ins residues inserted between the two positions. For some assays here: The concentration of ogerin is not given here.

In data set [1] the parent is B1. In words: cAMP reporter score (Enrich2 score, wild type = 0); higher = more signal; HEK293T, FACS bins.
The variants in data set [2] derive from B1. The data set is described as follows: surface expression score (Enrich2 score, wild type = 0); higher = more signal; HEK293T, FACS bins.

As for F348_T350del, the cAMP reporter score amounted to 0.338 in data set [1] (pH 5.5); 0.671 in data set [1] (pH 6); 0.177 in data set [1] (pH 6, modulator: ogerin); 0.265 in data set [1] (pH 6.5, modulator: ogerin). Also, the surface expression score in data set [2] was determined as 0.789.

As to T342_K343insGS, the cAMP reporter score was determined as 0.682 in data set [1] (pH 5.5); 1.42 in data set [1] (pH 6); 1.18 in data set [1] (pH 6, modulator: ogerin); 1.48 in data set [1] (pH 6.5, modulator: ogerin). Besides, the surface expression score in data set [2] was found to be 1.57.

In the case of F348E, the cAMP reporter score in data set [1] (pH 5.5) is 0.197; in data set [1] (pH 6), 0.44; in data set [1] (pH 6, modulator: ogerin) it was 0.237; in data set [1] (pH 6.5, modulator: ogerin) it was 0.472. The surface expression score in data set [2] turned out to be 0.658.

On to F348L, for which the cAMP reporter score in data set [1] (pH 5.5) was 0.654; in data set [1] (pH 6), -0.177; in data set [1] (pH 6, modulator: ogerin), 0.412; in data set [1] (pH 6.5, modulator: ogerin) it was 0.046. Moreover, in data set [2], the surface expression score was 0.955.

Regarding F348Y, the cAMP reporter score in data set [1] (pH 5.5) is -0.173; in data set [1] (pH 6), -0.402; in data set [1] (pH 6, modulator: ogerin), -0.043; in data set [1] (pH 6.5, modulator: ogerin), -0.593. In data set [2], the surface expression score is -0.158.

Turning to F348P, the cAMP reporter score amounted to 0.207 in data set [1] (pH 5.5); 0.504 in data set [1] (pH 6); 0.751 in data set [1] (pH 6, modulator: ogerin); 0.915 in data set [1] (pH 6.5, modulator: ogerin). The surface expression score in data set [2] turned out to be 0.875.

As for F348T, the cAMP reporter score in data set [1] (pH 5.5) was 0.917; in data set [1] (pH 6) it was 0.077; in data set [1] (pH 6, modulator: ogerin) it was 0.405; in data set [1] (pH 6.5, modulator: ogerin), 0.417. In data set [2], the surface expression score was found to be 1.3.

Consider F348R, for which the cAMP reporter score in data set [1] (pH 5.5) came to 0.231; in data set [1] (pH 6), 0.209; in data set [1] (pH 6, modulator: ogerin) it was 0.341; in data set [1] (pH 6.5, modulator: ogerin), 0.748. The surface expression score in data set [2] was 0.421.

Turning to F348C, the cAMP reporter score in data set [1] (pH 5.5) is 0.709; in data set [1] (pH 6) it was 1.94; in data set [1] (pH 6, modulator: ogerin) it was 1.1; in data set [1] (pH 6.5, modulator: ogerin), -0.063. Further, the surface expression score in data set [2] amounted to 1.4.

Consider F348M, for which the cAMP reporter score in data set [1] (pH 5.5) is -1.59; in data set [1] (pH 6), 1.83; in data set [1] (pH 6, modulator: ogerin) it was -0.63. The surface expression score in data set [2] worked out at 0.347.

With F348W, the cAMP reporter score in data set [1] (pH 5.5) came out at 0.866; in data set [1] (pH 6), 0.257; in data set [1] (pH 6, modulator: ogerin) it was 0.654; in data set [1] (pH 6.5, modulator: ogerin) it was 0.812. For the same variant, the surface expression score in data set [2] worked out at 0.575.

For the variant F348S, the cAMP reporter score in data set [1] (pH 5.5) was found to be 0.137; in data set [1] (pH 6), 0.539; in data set [1] (pH 6, modulator: ogerin) it was 0.854; in data set [1] (pH 6.5, modulator: ogerin), 0.272. Also, the surface expression score in data set [2] worked out at 0.502.

As for F348D, the cAMP reporter score in data set [1] (pH 5.5) was -0.265; in data set [1] (pH 6) it was -0.477; in data set [1] (pH 6, modulator: ogerin), -0.817; in data set [1] (pH 6.5, modulator: ogerin) it was 0.045. The surface expression score in data set [2] was -0.876.

For F348V, the cAMP reporter score in data set [1] (pH 5.5) is 1.73; in data set [1] (pH 6) it was 2.07; in data set [1] (pH 6, modulator: ogerin) it was 1.83; in data set [1] (pH 6.5, modulator: ogerin) it was 1.99. The surface expression score in data set [2] is 2.34.

In the case of F348G, the cAMP reporter score was -0.699 in data set [1] (pH 5.5); -0.488 in data set [1] (pH 6); 0.503 in data set [1] (pH 6, modulator: ogerin); 1.16 in data set [1] (pH 6.5, modulator: ogerin). Further, in data set [2], the surface expression score was -0.5.

For the variant F348I, the cAMP reporter score worked out at 1.36 in data set [1] (pH 5.5); 2.28 in data set [1] (pH 6); 1.09 in data set [1] (pH 6, modulator: ogerin); 1.63 in data set [1] (pH 6.5, modulator: ogerin). The surface expression score in data set [2] is 1.72.

As for F348A, the cAMP reporter score in data set [1] (pH 5.5) was determined as 0.497; in data set [1] (pH 6), 0.78; in data set [1] (pH 6, modulator: ogerin), 1; in data set [1] (pH 6.5, modulator: ogerin), 1.54. In addition, the surface expression score in data set [2] turned out to be 1.13.

With F348K, the cAMP reporter score in data set [1] (pH 5.5) is -0.978; in data set [1] (pH 6), -0.07; in data set [1] (pH 6, modulator: ogerin) it was 0.148; in data set [1] (pH 6.5, modulator: ogerin), 0.552. Also, in data set [2], the surface expression score is 0.972.

Turning to F348N, the cAMP reporter score in data set [1] (pH 5.5) was 1.37; in data set [1] (pH 6), 1.27; in data set [1] (pH 6, modulator: ogerin), 1.86; in data set [1] (pH 6.5, modulator: ogerin), 2.2. Also, the surface expression score in data set [2] came out at 1.89.

As to F348H, the cAMP reporter score in data set [1] (pH 5.5) stood at 0.974; in data set [1] (pH 6), 0.998; in data set [1] (pH 6, modulator: ogerin), 0.94; in data set [1] (pH 6.5, modulator: ogerin), 0.546. The surface expression score in data set [2] amounted to 0.578.

With S353_P354insGSG, the cAMP reporter score came out at 0.853 in data set [1] (pH 5.5); 0.155 in data set [1] (pH 6); 0.881 in data set [1] (pH 6, modulator: ogerin); 1.09 in data set [1] (pH 6.5, modulator: ogerin). Moreover, in data set [2], the surface expression score was found to be 0.508.

Consider N352_S353del, for which the cAMP reporter score was 0.084 in data set [1] (pH 5.5); -0.233 in data set [1] (pH 6); -0.321 in data set [1] (pH 6, modulator: ogerin); -0.182 in data set [1] (pH 6.5, modulator: ogerin). The surface expression score in data set [2] is -0.797.

As to T342del, the cAMP reporter score in data set [1] (pH 5.5) was 0.05; in data set [1] (pH 6), -0.87; in data set [1] (pH 6, modulator: ogerin), 0.084; in data set [1] (pH 6.5, modulator: ogerin) it was -0.176. Moreover, the surface expression score in data set [2] was found to be 0.605.

Q349_T350insG: the cAMP reporter score is 0.829 in data set [1] (pH 5.5); -0.315 in data set [1] (pH 6); 0.801 in data set [1] (pH 6, modulator: ogerin); 0.975 in data set [1] (pH 6.5, modulator: ogerin). In addition, the surface expression score in data set [2] stood at 0.758.

For the variant A347_F348insGS, the cAMP reporter score in data set [1] (pH 5.5) was determined as 0.965; in data set [1] (pH 6, modulator: ogerin), 0.935; in data set [1] (pH 6.5, modulator: ogerin), 0.933. In data set [2], the surface expression score turned out to be 1.81.

Take A347_F348insG: the cAMP reporter score was 0.419 in data set [1] (pH 5.5); 1.57 in data set [1] (pH 6); 1.34 in data set [1] (pH 6, modulator: ogerin); 1.75 in data set [1] (pH 6.5, modulator: ogerin). The surface expression score in data set [2] is 0.561.

As to T342V, the cAMP reporter score in data set [1] (pH 5.5) came out at 1.65; in data set [1] (pH 6, modulator: ogerin), 0.946; in data set [1] (pH 6.5, modulator: ogerin) it was 2.4. In addition, the surface expression score in data set [2] came to 0.892.

Consider T342Q, for which the cAMP reporter score in data set [1] (pH 5.5) is 0.392; in data set [1] (pH 6) it was -0.039; in data set [1] (pH 6, modulator: ogerin), 0.492; in data set [1] (pH 6.5, modulator: ogerin) it was 0.606. In addition, the surface expression score in data set [2] is 0.774.

Take T342S: the cAMP reporter score in data set [1] (pH 5.5) is 0.273; in data set [1] (pH 6), -0.382; in data set [1] (pH 6, modulator: ogerin) it was 0.684; in data set [1] (pH 6.5, modulator: ogerin), 1.02. In data set [2], the surface expression score stood at 0.453.

Take T342R: the cAMP reporter score in data set [1] (pH 5.5) stood at 0.839; in data set [1] (pH 6), 0.588; in data set [1] (pH 6, modulator: ogerin), 1.57; in data set [1] (pH 6.5, modulator: ogerin), 0.668. In addition, the surface expression score in data set [2] is 0.415.

With T342W, the cAMP reporter score in data set [1] (pH 5.5) was 0.642; in data set [1] (pH 6), -0.093; in data set [1] (pH 6, modulator: ogerin), 0.361; in data set [1] (pH 6.5, modulator: ogerin) it was -0.367. In addition, in data set [2], the surface expression score was -0.045.
